# Source: PubChem BioAssay AID488969 (Vanderbilt High Throughput Screening Facility, 2010)
# The full ranking holds about 110,000 compounds; the median of “z-score” is about -0.1, and the highest 2% start at about 2. The list shows a part of the results.
# Biological target: Metabotropic glutamate receptor 8 (Rattus norvegicus) (UniProt P70579)
# Test: rat mGluR8 modulators via GIRK flux, primary screen, cell-based, thallium flux, HTS (AID 488969)
# Conditions: HEK293 rat mGluR8, GIRK (G protein-gated inwardly rectifying potassium channel) thallium flux, FluoZin2; at 10 µM; stronger effect = higher value; submaximal glutamate (EC20) added with thallium
# Sequence of UniProt P70579 (P70579 whole entry, looked up): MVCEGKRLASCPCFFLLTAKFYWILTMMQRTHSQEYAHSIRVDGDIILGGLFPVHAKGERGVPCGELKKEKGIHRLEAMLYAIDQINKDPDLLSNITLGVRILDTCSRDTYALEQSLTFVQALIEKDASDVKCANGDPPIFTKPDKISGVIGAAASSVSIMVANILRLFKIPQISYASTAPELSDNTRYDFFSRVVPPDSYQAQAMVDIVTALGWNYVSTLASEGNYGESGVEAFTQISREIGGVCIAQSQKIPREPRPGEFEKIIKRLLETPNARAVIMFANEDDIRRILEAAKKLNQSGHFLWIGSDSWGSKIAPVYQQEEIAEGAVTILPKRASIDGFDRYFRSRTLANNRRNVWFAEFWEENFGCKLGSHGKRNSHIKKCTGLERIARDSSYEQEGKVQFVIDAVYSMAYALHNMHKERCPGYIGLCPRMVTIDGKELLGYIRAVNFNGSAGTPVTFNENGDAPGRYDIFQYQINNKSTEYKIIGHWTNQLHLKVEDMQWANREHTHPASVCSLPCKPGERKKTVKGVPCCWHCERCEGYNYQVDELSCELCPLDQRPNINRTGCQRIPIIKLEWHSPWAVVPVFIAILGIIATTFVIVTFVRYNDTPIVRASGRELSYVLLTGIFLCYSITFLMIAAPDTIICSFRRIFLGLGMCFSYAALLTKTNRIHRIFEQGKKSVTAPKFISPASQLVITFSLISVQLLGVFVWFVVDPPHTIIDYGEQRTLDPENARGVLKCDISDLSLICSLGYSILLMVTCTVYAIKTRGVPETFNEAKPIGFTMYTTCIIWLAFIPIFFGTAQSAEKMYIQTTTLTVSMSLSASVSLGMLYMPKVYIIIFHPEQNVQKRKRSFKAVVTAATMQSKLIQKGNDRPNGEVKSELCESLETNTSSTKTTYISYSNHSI
row,Structure (SMILES),z-score
1,CCCN(CCC)S(=O)(=O)c1ccc(C(=O)Nc2nnc(CSC)o2)cc1,0.35
2,CS(=O)(=O)N(CC(=O)NCCc1ccccc1)C1CCCCC1,-0.172
3,O=S(=O)(NCCCc1ccccc1)c1ccccc1,-0.201
4,COc1ccc2[nH]c3c(=O)n(Cc4ccco4)cnc3c2c1,-0.0334
5,CCOc1ccc(Oc2cc(NC(=O)c3ccco3)cc([N+](=O)[O-])c2)cc1,-0.289
6,Fc1ccc(OCCCCCN2CCCC2)cc1,-0.494
7,CCOC(=O)C1(S(=O)(=O)c2ccccc2)CCN(Cc2ccccc2)CC1,-0.78
8,COc1ccc(NC(=S)Nc2ccc(F)cc2)c(OC)c1,-0.0593
9,CC1CCN(c2nc(-c3ccccc3O)nc3ccccc23)CC1,-0.417
10,Cc1ccc(/C=N/NC(=O)c2cc(C)oc2C)o1,-0.624
11,O=C(Cc1cnn(-c2ccccc2)c1)c1ccc(O)c(O)c1O,0.0853
12,COC(=O)c1[nH]c2cccc(OC)c2c1NC(=O)CN(C)CC1OCCO1,0.102
13,CN(C)S(=O)(=O)c1cc(NC(=O)COC(=O)Cc2cccc3ccccc23)ccc1Cl,0.00257
14,Cc1nnc(NC(=O)CC(NC(=O)C(F)(F)F)c2ccccc2)s1 (stereo not drawn),-0.436
15,CCC(/C=N/NC(=O)C1COc2ccccc2O1)CC (stereo not drawn),1.68
16,Cc1cc(F)ccc1NCC(=O)Nc1ccccc1Br,1.92
17,Cc1ccc(C(=O)NC2c3ccccc3-c3ccccc32)cc1,-0.548

row,Structure (SMILES),z-score
1,O=C(NCCc1ccccc1)c1ccncc1,0.547
2,O=C(CSc1nc2ccccc2n1CC(=O)N1CCCC1)Nc1nccs1,0.452
3,COc1ccc(S(=O)(=O)N2CCC(C(=O)NCCc3ccccc3)CC2)cc1OC,-0.189
4,CCN(CC)S(=O)(=O)c1ccc(C(=O)OCCNC(=O)c2cccnc2)cc1,-0.485
5,C/C(=N\NC(=O)c1ccc(C)cc1)C1C(=O)c2ccccc2C1=O,1.69
6,Cc1nc2c3ccccc3n(CC#N)c(=O)n2n1,-0.0267
7,COc1ccc(S(=O)(=O)N(C(C)=O)c2ccc3oc(=O)sc3c2)cc1,-0.103
8,CCC(CC)NC(=O)Cc1ccc(S(=O)(=O)N2CCOCC2)s1,-0.187
9,O=C(CN1C2CCC1CC(NC(=O)Nc1ccccc1)C2)NCc1ccco1 (stereo not drawn),0.243
10,CCCN1Cc2cccc(C(=O)N3CCN(c4cc(Cl)ccc4C)CC3)c2C1=O,1.1
11,O=C1/C(=C/c2ccccc2)CCCc2ccccc21,-0.145
12,Fc1cccc(NC(=S)N2CCCCC2)c1,0.0996
13,O=C(c1ccccc1Cl)N(C(=O)c1ccccc1Cl)c1nccc(-c2cccs2)n1,-0.121
14,Cc1cc(C)cc(OCCCC(=O)O)c1,-0.302
15,O=C(COc1ccc2ccccc2c1)NCCn1ccc2ccccc21,-0.31
16,Cc1nc(NC(=O)C2CC2)sc1C(=O)N(C)C,-0.405
